# From the supplement of paper PMC4967469
# Compound: NC1(c2ccc(-c3nc4ccn5c(=O)[nH]nc5c4cc3-c3ccccc3)cc2)CCC1 [MK-2206]
# Experiment: Viability of human cancer cell lines after 72 h of drug (GDSC screen)
# Method: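 Human cancer cell lines in 384-well plates, medium with 10% serum, drug for 72 h over a 256-fold dose range (nine 2-fold or five 4-fold steps up to the top dose). Adherent lines were fixed and stained with the nucleic acid dye Syto60, suspension lines read with resazurin; signal relative to control wells, capped at 0 and 100%. One two-parameter sigmoid per drug and line, fitted in a mixed model over all curves with the slope shared within a line.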
Cell Line,AUC,IC50 [µM]
"TC-71 (Ewing sarcoma, adherent, top dose 4 µM)",0.965,> 4
"TC-YIK (cervix, suspension, top dose 4 µM)",0.968,> 4
"TCCSUP (bladder, adherent, top dose 4 µM)",0.953,> 4
"TE-1 (oesophagus, adherent, top dose 4 µM)",0.948,> 4
"TE-4 (oesophagus, adherent, top dose 4 µM)",0.785,1.7
"TE-5 (oesophagus, adherent, top dose 4 µM)",0.841,3.41
"TE-6 (oesophagus, adherent, top dose 4 µM)",0.874,> 4
"TE-8 (oesophagus, adherent, top dose 4 µM)",0.926,> 4
"TE-9 (oesophagus, adherent, top dose 4 µM)",0.985,> 4
"TE-10 (oesophagus, adherent, top dose 4 µM)",0.97,> 4
"TE-11 (oesophagus, adherent, top dose 4 µM)",0.983,> 4
"TE-12 (oesophagus, suspension, top dose 4 µM)",0.943,> 4
"TE-15 (oesophagus, suspension, top dose 4 µM)",0.827,2.89
"TGBC1TKB (biliary tract, adherent, top dose 4 µM)",0.932,> 4
"TGBC11TKB (stomach, adherent, top dose 4 µM)",0.992,> 4
"TGW (neuroblastoma, adherent, top dose 4 µM)",0.894,3.61
"TK10 (kidney, adherent, top dose 4 µM)",0.891,> 4
"TK (B-cell lymphoma, suspension, top dose 4 µM)",0.867,3.1

Cell Line,AUC,IC50 [µM]
"TMK-1 (stomach, adherent, top dose 4 µM)",0.785,1.82
"TOV-21G (ovary, adherent, top dose 4 µM)",0.928,> 4
"TOV-112D (ovary, adherent, top dose 4 µM)",0.957,> 4
"TT2609-C02 (thyroid, adherent, top dose 4 µM)",0.906,> 4
"TUR (B-cell lymphoma, suspension, top dose 4 µM)",0.512,0.269
"TYK-nu (ovary, adherent, top dose 4 µM)",0.826,2.65
"U-87-MG (glioma, adherent, top dose 4 µM)",0.976,> 4
"U-118-MG (glioma, adherent, top dose 4 µM)",0.965,> 4
"U-266 (myeloma, semi-adherent, top dose 4 µM)",0.961,> 4
"U-698-M (B-cell leukaemia, suspension, top dose 4 µM)",0.884,> 4
"UACC-62 (melanoma, adherent, top dose 4 µM)",0.957,> 4
"UACC-257 (melanoma, adherent, top dose 4 µM)",0.92,> 4
"UWB1.289 (ovary, adherent, top dose 4 µM)",0.852,> 4
"VA-ES-BJ (soft tissue, adherent, top dose 4 µM)",0.658,0.706
"VAL (B-cell lymphoma, suspension, top dose 4 µM)",0.918,> 4
"VCaP (prostate, adherent, top dose 4 µM)",0.906,> 4
"VM-CUB-1 (bladder, adherent, top dose 2 µM)",0.852,1.46

# Lines with a small IC50 respond at low doses; where the fit passes the top or lowest dose, that dose stands as a limit. AUC is the area under the same curve over the 256-fold range up to the top dose, as a fraction; it is 1 without any effect and falls as sensitivity rises.
